Laboratory results reported in article PMC4336329 (PLoS ONE, 2015).
The campaign covered roughly 310,000 compounds. About 2,200 (0.71%) showed an effect of 50% or more. Effects have a minus sign here. This is one part of the list.

What follows are compounds tested against human ether-à-go-go-related gene (hERG) potassium channel (human, UniProt Q12809) (assay: primary screen, population patch clamp on CHO cells stably expressing hERG).
Sequence of human ether-à-go-go-related gene (hERG) potassium channel (Q12809 whole entry, looked up): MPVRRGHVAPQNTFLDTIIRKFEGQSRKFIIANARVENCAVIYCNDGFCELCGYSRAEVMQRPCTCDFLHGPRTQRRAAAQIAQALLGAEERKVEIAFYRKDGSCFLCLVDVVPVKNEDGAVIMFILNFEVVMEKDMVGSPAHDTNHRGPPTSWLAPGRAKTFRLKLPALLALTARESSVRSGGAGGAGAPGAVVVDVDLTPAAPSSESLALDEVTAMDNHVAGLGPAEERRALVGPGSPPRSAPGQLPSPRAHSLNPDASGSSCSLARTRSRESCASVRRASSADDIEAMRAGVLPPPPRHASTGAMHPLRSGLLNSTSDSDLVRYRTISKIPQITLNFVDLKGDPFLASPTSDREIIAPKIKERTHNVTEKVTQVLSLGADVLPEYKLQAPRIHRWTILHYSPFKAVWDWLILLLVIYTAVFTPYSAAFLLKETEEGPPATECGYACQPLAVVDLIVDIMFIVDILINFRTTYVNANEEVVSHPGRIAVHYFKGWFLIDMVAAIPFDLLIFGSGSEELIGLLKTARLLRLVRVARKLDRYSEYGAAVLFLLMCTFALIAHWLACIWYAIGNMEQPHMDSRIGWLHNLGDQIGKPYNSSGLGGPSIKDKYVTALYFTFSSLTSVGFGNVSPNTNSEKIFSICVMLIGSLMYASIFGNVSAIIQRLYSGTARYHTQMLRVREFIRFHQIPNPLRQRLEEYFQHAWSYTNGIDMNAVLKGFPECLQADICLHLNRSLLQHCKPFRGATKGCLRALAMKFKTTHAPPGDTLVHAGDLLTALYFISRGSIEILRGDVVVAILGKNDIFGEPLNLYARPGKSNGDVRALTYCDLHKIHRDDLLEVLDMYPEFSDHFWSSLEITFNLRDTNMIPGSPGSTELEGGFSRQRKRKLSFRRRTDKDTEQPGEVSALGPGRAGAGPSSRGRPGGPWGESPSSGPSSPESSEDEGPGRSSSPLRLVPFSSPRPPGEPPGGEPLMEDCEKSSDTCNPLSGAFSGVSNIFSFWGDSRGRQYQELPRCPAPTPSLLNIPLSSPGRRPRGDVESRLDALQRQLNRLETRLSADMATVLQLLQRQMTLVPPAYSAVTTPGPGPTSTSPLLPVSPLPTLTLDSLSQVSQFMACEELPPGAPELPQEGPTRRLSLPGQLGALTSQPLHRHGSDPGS

Point of comparison: `CCc1ccc(N2C(=O)Cc3c2nc(N)c(C#N)c3N)cc1`, “hERG current change (%, negative = inhibition) at 1uM” value 11.5%. Against it:
- CCc1ccc(OCc2nnc(SCCN3CCOCC3)n2CC)cc1.O=C(O)C(=O)O — lower, -5.65%
- O=C1C=C(c2ccccc2)CC(/C=C/c2ccccc2)C1 (stereo not drawn) — lower, 9.67%
- Clc1ccc2nnnc(-c3ccccc3)c2c1 — lower, 8.12%
- COc1ccc(NC(=S)N2CCN(CCN=CC3=C(O)CC(c4ccccc4)CC3=O)CC2)cc1 (stereo not drawn) — lower, 1.43%
- Cc1ccc(CSc2nc(-c3ccccc3)c(C#N)c(=O)[nH]2)cc1 — the same, 11.5%
- COc1ccc(C(=O)N2CCCC(CO)(Cc3ccccc3C)C2)o1 (stereo not drawn) — lower, 1.62%
- CCOC(=O)c1cnn(-c2ccccc2)c1NC(=O)c1ccc(C)cc1 — lower, -14.6%
- O=C(c1csc2ccccc12)N1CCN(c2ccccn2)CC1 — lower, -6.14%
- CCC(CC)C(=O)Nc1c(C)n(C)n(-c2ccccc2)c1=O — lower, 11.3%
- CNC(=S)N1N=C(c2ccc(Br)cc2)CC1c1ccc(OC)cc1 (stereo not drawn) — higher, 14.6%
- CCN(CC)CCNC(=O)Cn1cnc2sc(C)c(S(=O)(=O)N3CCN(c4ncccn4)CC3)c2c1=O — higher, 13.8%
- Nc1c(C(=O)CSc2nncn2-c2ccccc2)c(=O)[nH]c(=O)n1C1CC1 — lower, 4.81%
- S=c1nc(-c2ccccc2Cl)[nH][nH]1 — higher, 19.4%
- O=C(Nc1ccc(Cl)cc1)C1CCCN(C2=NS(=O)(=O)c3ccccc32)C1 (stereo not drawn) — lower, -13.1%
- COc1cc(NC(=O)c2cc3ccccc3cc2OC)ccc1NC(=O)c1cccs1 — higher, 16.4%
- CCc1ccc(NC(=O)CCc2c(C)nn(-c3ccc(N4CCOCC4)nn3)c2C)cc1 — lower, 10.5%
- COc1ccc(C2C(CC(=O)O)=C(Nc3ccccc3)C(=O)N2c2ccccc2)cc1 (stereo not drawn) — higher, 16.1%
- Cc1cccc(-c2sc(Nc3ccccc3)n[n+]2-c2ccccc2)c1.[Cl-] — lower, -10.2%
- Cc1[nH]n(-c2ccccc2)c(=O)c1/C=N/NC(=O)c1cccc([N+](=O)[O-])c1 — lower, 7.96%
- CCOc1ccccc1NC(=O)NC1CC2CCCC(C1)N2Cc1nnnn1CCc1ccccc1 (stereo not drawn) — higher, 13.4%
- Cc1[nH]c(=O)[nH]c(=O)c1/C=C/C(=O)OCC(C)C — lower, 9.57%
- Cc1cc(-c2nnc(SCC(=O)NC3CCCC3)o2)no1 — lower, -3.78%
- CCOP(=O)(OCC)C(Nc1cccc([N+](=O)[O-])c1)c1ccccc1 (stereo not drawn) — lower, 1.26%
- O=C(Nc1ccccc1)C1CC=CCC1C(=O)OCC1CCCO1 (stereo not drawn) — lower, -5.31%
- CCC(=O)N1CCc2cc(S(=O)(=O)NC(Cc3ccccc3)C(=O)NC3CCCC3)ccc21 (stereo not drawn) — higher, 21.3%
- CC(=O)Nc1cccc(C(=O)OCC(=O)Nc2c(C)nn(-c3ccccc3)c2C)c1 — higher, 15.3%
- CC(C)(C)c1cc(NC(=O)c2cccc(S(=O)(=O)N3CCOCC3)c2)no1 — lower, 8.95%
- Cc1nn(Cc2cccc(C(=O)NC3CCCCC3)c2)c(C)c1Cl — lower, 4.01%
- COc1ccc(OC)c(C2C(C#N)=C(N)N(N(C)C)C3=C2C(=O)CC(C)(C)C3)c1 (stereo not drawn) — lower, 10.1%
- Cc1cc(C)n(Cc2nc3ccccc3n2C)n1 — higher, 16.4%
- O=C(NCC1OCCc2ccccc21)c1ccc(NC(=O)c2ccccc2Cl)cc1 (stereo not drawn) — higher, 18.9%
- O=[N+]([O-])c1cn(-c2nc(-c3ccco3)cc(C(F)(F)F)n2)cn1 — lower, 2.23%
- O=C(c1ccc(=O)n(Cc2ccccc2)n1)N1CCN(C/C=C/c2ccccc2)CC1 — lower, -10%
- C=CCNC(=S)NCC1COc2ccccc2O1 (stereo not drawn) — higher, 12.3%
- COc1cccc(C2=NOC(C(=O)NC(C)(C)C)C2)c1 (stereo not drawn) — higher, 14.9%
- COc1ccc2c(=O)c3c(=O)n(Cc4ccco4)c(-c4ccccc4)nc3oc2c1 — lower, -4.12%
- Cc1ccc(C(=O)N/C(=C\c2ccc(C)o2)C(=O)O)cc1 — lower, 10.9%
- Cl.SC(COCc1ccccc1)CN1CCN(Cc2ccc3c(c2)OCO3)CC1 (stereo not drawn) — lower, 6.58%
- CC1SC(c2ccccc2Cl)NC1=O (stereo not drawn) — higher, 21.2%
- O=C(CN1CCCC1)N/N=C/c1ccc(-c2cccc(Cl)c2)o1 — lower, -43.9%
- CC(C)N(C(=S)NC1CCCCC1)c1ccccc1 — higher, 13.9%
- CC(C)OC(=O)Cn1c(=O)oc2ccccc21 — lower, 11%
- COc1ccccc1NC(=O)Cn1cnc2c(nnn2-c2ccc(C)cc2)c1=O — lower, 6.79%
- Cc1ccc(OCc2cc(C(=O)N3CCN(C)C[C@@H]3c3ccccc3)no2)cc1C — lower, 4.16%
- O=C(O)/C=C/C(=O)Nc1ccc(Cl)c(C(=O)O)c1 — lower, 10.1%
- CCOC(=O)C1CCN(S(=O)(=O)c2ccc3[nH]c(=O)ccc3c2)CC1 — lower, -2.48%
- Cn1nc(C(=O)Nc2cccnc2)c2ccccc2c1=O — higher, 12.4%
- C#CCOc1ccc(/C=C2/C(=O)ON=C2C)cc1Br — higher, 19.7%
- Cc1ccc(Nc2nnc(SCC(=O)c3ccc(O)cc3O)s2)cc1 — higher, 20.7%
- NC1=NC(=O)C(Cc2ccc(Br)cc2)S1 (stereo not drawn) — higher, 14.9%
- O=C(C1CC1)N(Cc1nc2ccccc2c(=O)[nH]1)Cc1cccs1 — lower, 6.85%
- Cc1ccc(CN2CCN(/N=C\C(Br)=C\c3ccccc3)CC2)cc1 — lower, 7.53%
- Cc1cccc2sc(NC(=O)CN3C(=O)NC4(CCCC4)C3=O)nc12 — lower, -2.61%
- Cc1ccccc1C(OCC(O)CN1CCN(CCO)CC1)c1ccccc1.O=C(O)C(=O)O (stereo not drawn) — lower, 6.37%
- Cc1nn(-c2ccccc2)c2sc(C(=O)NC3CC3)cc12 — lower, -1.41%
- CCOC(=O)N(c1ccccc1)P1(=S)OCC(C)O1 (stereo not drawn) — higher, 21.6%
